Experimental findings from the RNAGym collection of RNA variant scans (doi:10.1101/gad.245936.114) are described below.

Variants at the background level are over-represented here.

B1: tRNA (parent)
chain: CUCUCGGUAGCCAAGUUGGUUUAAGGCGCAAGACUUUAAUUUAUCACUACGAAAUCUUGAGAUCGGGCGUUCGACUCGCCCCCGGGAGAUUUUUUCCUCGAGCAA

The series covers variants of B1. Nature of the series: nonsense suppression (GFP-seq) (ratio to wild type); higher = more function; SUP4oc tRNA, yeast GFP reporter sort-seq. In outline: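 Each variant's nonsense suppression (GFPSEQ) is a cell-share-weighted bin median GFP/RFP relative to the unmutated parent tRNA. Yeast with genome-integrated tRNA variants from a ~3% random-mutation library, a galactose-driven GFP ochre reporter and RFP were grown in raffinose/galactose medium with 80 mg/L adenine, then sorted into GFP/RFP bins for Illumina sequencing. Variants needed ≥100 reads and ≥30 cells.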
C12U C75G: the nonsense suppression worked out at 1.23.
Then C1G U22C C27U G67C, with at most 0.026; and C34U G65A G66U, with at most 0.026.
Then A31C A33G C80U, with at most 0.026; and G15C A24U G65U G85A, with at most 0.026.
Regarding C27G G65A, the nonsense suppression was at most 0.026.
Then C27A C34A, with at most 0.026; and C34A C83G, with at most 0.026; and U2A A13G C34G G69A, with at most 0.026.
In the case of G78C C79G it was at most 0.026.
Then G7C U16G C34U U63A C75A A89C, with at most 0.026; and U2C C34G C56A G66C, with at most 0.026; and G88C A89G, with at most 0.026.
For U57G G66A, the nonsense suppression was at most 0.026.
Then U4C G7C G19U U57G, with at most 0.026; and C1U C29G, with at most 0.026; and G7A U8C, with at most 0.026.
Then C5G A13C G25C U57C, with at most 0.026; and U21G C80G G88C, with at most 0.026.
Turning to U35C C68A, the nonsense suppression is at most 0.026.
Then G73C G86A, with at most 0.026.
As to G15C C34A G67U C82G, the nonsense suppression is at most 0.026.
Consider C1U A13U A74U U76C, for which the nonsense suppression was at most 0.026.
Then G6U A30G G84U, with at most 0.026.
Then U4A A14C A31C U55C, with at most 0.026.
In the case of C29U G61A it was 0.83.
C3U G19U U58G: the nonsense suppression is at most 0.026.
In the case of G19U U35C C72G it was at most 0.026.
In the case of C64G G67C G85C it was at most 0.026; in that of G7A U55A, at most 0.026; in that of C29G C77G, at most 0.026.
Then C12U U35C G61C, with at most 0.026; and U21A C83G G88U, with at most 0.026.
In the case of A14G A62G G67U, the nonsense suppression is at most 0.026.
Then U20G A60U, with 1.12; and G15U U20C G61A, with at most 0.026; and C5G U20A A60C C64A, with at most 0.026.
In the case of G25A U71C G86C it was at most 0.026; in that of U20G G26C, at most 0.026; in that of C1A G6C C11U C68A, at most 0.026.
In the case of C3G G25C U71G G73U it was at most 0.026.
Turning to A31G C81G, the nonsense suppression is at most 0.026.
Then C3U U35C, with at most 0.026; and C5G A54U U63G C72G A87U, with at most 0.026; and G7U U21G, with at most 0.026.
In the case of U4C U17C, the nonsense suppression amounted to 1.04.
In the case of C12G G15C G67U it was at most 0.026; in that of A14C C29U C56U, at most 0.026; in that of U21G G25C G32A C68U, at most 0.026.
In the case of U17A C81A it was at most 0.026; in that of U8A A74G, at most 0.026.
In the case of C11U U17A it was at most 0.026.
In the case of A31C C64G, the nonsense suppression was at most 0.026.
Regarding G15U C56U G66A, the nonsense suppression is at most 0.026.
Turning to C34G G59U G88U, the nonsense suppression is at most 0.026.
Then G18A G73A, with at most 0.026; and A9U G19C G25U C29U G65U U76C, with at most 0.026.
Turning to A24C A30U G32U C82A, the nonsense suppression is at most 0.026.
As to U22C G66C C82G, the nonsense suppression was at most 0.026.
Then A9G C80G G85A, with at most 0.026.
Then C27G C68G G84A, with at most 0.026.
Then U8G C27U, with at most 0.026.
On to A24G C79G G85U, for which the nonsense suppression was at most 0.026.
In the case of A33C U76C it was at most 0.026; in that of C29U U35A, at most 0.026; in that of G10U C12A C34A, at most 0.026.
In the case of C68A C75A it was 0.0286; in that of U17C G73U G88C, at most 0.026; in that of C5G G15U A31C, at most 0.026.
In the case of C1G U76G, the nonsense suppression was at most 0.026.
In the case of U55G C75G it was at most 0.026.
In the case of C1G G66A it was at most 0.026; in that of U17G G28C G32A A60G, at most 0.026.
In the case of C5U A13G G28A G66C it was at most 0.026.
Turning to U16A A87C, the nonsense suppression is at most 0.026.
Then A14C C81A G85A, with at most 0.026; and C1A U4C U63G, with at most 0.026; and G25C A31C, with at most 0.026.
In the case of C1G G18U it was at most 0.026.
In the case of U21G C72U C83G it was at most 0.026; in that of G67C G69A G78A, at most 0.026; in that of G6U G15U U63A, at most 0.026.
Take C12G U63G: the nonsense suppression was at most 0.026.
Regarding U17G U20C G28U G84C, the nonsense suppression was at most 0.026.
Then G19A U22C A24U U55G G61U A87C, with at most 0.026; and G7A C83U A87C, with at most 0.026; and U8C A9U C83A, with at most 0.026.
Then C11G G28A G66A G88U, with at most 0.026; and G6U G26U G59U G84C, with at most 0.026; and U22C G25C, with 0.0473.
For the variant U8A G19U U20A G78A, the nonsense suppression is at most 0.026.
As to G18U U71A A89G, the nonsense suppression was at most 0.026.
In the case of C1A A9C U76A it was at most 0.026.
Then G15C C64A C75G, with at most 0.026; and C1U U71G, with at most 0.026; and C5A C27G G73A, with at most 0.026.
With G18U G67A G88A, the nonsense suppression is at most 0.026.
In the case of C5G A9G C75G it was at most 0.026; in that of C11U A54U G59A G67U A74C, at most 0.026.
Then U16C U20A G69A U76G, with at most 0.026.
As to A33U G66U G73C A87C, the nonsense suppression is at most 0.026.
Then U17C A54G A62U, with at most 0.026.
Then C5A G10A C34A A62U U63A U71C, with at most 0.026.
For the variant A24C U70C C83U, the nonsense suppression is at most 0.026.
Then A62C G69C, with at most 0.026.
Then C5U G69A, with at most 0.026.
In the case of U4C A13C it was 1.05; in that of C12U G25C A87C, at most 0.026.
On to U8G A13C G28C C64U U70A C72U G84U, for which the nonsense suppression is at most 0.026.
Take G28U C34U U58G: the nonsense suppression was at most 0.026.
Then G10C C64A C83G, with at most 0.026; and G18U C72G A74G, with at most 0.026; and G10U G32C, with at most 0.026.
In the case of C1A G7U C80G G84A it was at most 0.026; in that of G19C G65C C81U A89C, at most 0.026; in that of C5G C11U C27A A31U G86U, at most 0.026.
Then U21C A33G G69A, with at most 0.026; and G6U A31U U63C, with at most 0.026; and U4G A54C U58A A74C, with at most 0.026.
In the case of U17C C27A, the nonsense suppression is at most 0.026.
Regarding C5A U16G U55C U71G C83G, the nonsense suppression was at most 0.026.
In the case of C1U U55C U71G it was at most 0.026.
Then C83G G84C, with at most 0.026; and C3A A23G G25U C72A, with at most 0.026; and A74U G84A, with at most 0.026.
In the case of C5U G32U U70A C75A it was at most 0.026.
On to U21G G73C A89C, for which the nonsense suppression is at most 0.026.
In the case of G6A U21G A33G C83A it was at most 0.026; in that of U21C A30G U57G, at most 0.026; in that of U20C C68G G84A, at most 0.026.
As to C27U C72A, the nonsense suppression is at most 0.026.
Take G7A A14C G67U A74G: the nonsense suppression was at most 0.026.
As for C12A A30C U70A, the nonsense suppression was at most 0.026.
For C1A U20C, the nonsense suppression was at most 0.026.
In the case of G84A G86C it was at most 0.026; in that of G10A G15U, at most 0.026; in that of G28C U71C, 0.112.
Then U4C U16C A31U, with 0.97.
For A13G A33U U57A, the nonsense suppression was at most 0.026.
As for U16G C29U, the nonsense suppression was determined as 1.11.
In the case of A33U G85U it was at most 0.026; in that of C3U G86U, at most 0.026.
Consider C3A A9G A31C U58G G59A, for which the nonsense suppression was at most 0.026.
Then A30G C72U, with at most 0.026; and C3G A23U C27U A54G, with at most 0.026.
Then U22C U58G, with at most 0.026; and A9C C27A U58G, with at most 0.026.
Then G59A A89C, with at most 0.026.
With U22C G59A C77G, the nonsense suppression was at most 0.026.
Then C1U G6A A31C U58A G61C U76C, with at most 0.026; and C56G G66C C83G, with at most 0.026; and A9U A23G A54C G69U G85C, with at most 0.026.
Then A14G U20A U35G U55G, with at most 0.026.
On to G18U C56U C64G G73C, for which the nonsense suppression was at most 0.026.
Then U55C C72A A74G C82U, with at most 0.026; and G7U A74C, with at most 0.026; and A87G A89C, with at most 0.026.
In the case of C64A C68U C75A it was at most 0.026; in that of C82A G85U, 0.0445.
Then G19U U71C, with at most 0.026; and C79U G88C, with at most 0.026.
Turning to U2C G86A, the nonsense suppression is at most 0.026.
In the case of G15C C29A it was at most 0.026; in that of G19A A23U, at most 0.026.
In the case of C64A G88A it was at most 0.026; in that of G65C G85A, at most 0.026.
Then U8C C80U C82G, with at most 0.026.
